Source: patent publication US12274759B2, “Affibody proteins specific for B7-H3 (CD276)” (THE BOARD OF TRUSTEES OF THE LELAND STANFORD JUNIOR …, priority 2018, dated 2025)

Key:
soluble B7-H3 = target: T1, soluble B7-H3 (Homo sapiens, UniProt Q5ZPR3); assay: Binding of microbubbles to soluble B7-H3 by flow cytometry; details: Example 1; compared to non-targeted MBs
T1 sequence (Q5ZPR3 29-466): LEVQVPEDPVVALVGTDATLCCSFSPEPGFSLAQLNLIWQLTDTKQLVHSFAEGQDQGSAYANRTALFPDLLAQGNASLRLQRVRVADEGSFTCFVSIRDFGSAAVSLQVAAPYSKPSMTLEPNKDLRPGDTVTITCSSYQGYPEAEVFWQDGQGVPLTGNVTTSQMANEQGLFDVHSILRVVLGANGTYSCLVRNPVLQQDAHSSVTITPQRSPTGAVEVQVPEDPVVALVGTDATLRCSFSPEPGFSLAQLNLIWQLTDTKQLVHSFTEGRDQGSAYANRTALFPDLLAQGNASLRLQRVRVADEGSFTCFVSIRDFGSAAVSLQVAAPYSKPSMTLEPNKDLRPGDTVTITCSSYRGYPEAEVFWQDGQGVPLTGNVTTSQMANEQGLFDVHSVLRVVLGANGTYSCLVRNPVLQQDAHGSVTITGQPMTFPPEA
Procedure: The affibodyB7-H3-MBs were created by attaching affibodyB7-H3 to the shell of synthesized perfluorobutane-filled phospholipid MBs. Subsequently, the binding of affibodyB7-H3 -MBs to a soluble B7-H3 was assessed by flow cytometry. Non-targeted MBs and anti-B7-H3 antibody-decorated MBs (anti-B7-H3-MBs) were used as controls. All microbubble constructs were then tested for their molecular imaging capabilities in a transgenic breast cancer mouse model (FVB/N-Tg(MMTV-PyMT)634Mul/J).

[1] = target: T2, human B7-H3 (MS1 B7-H3+ / MS1hB7-H3 cells) (Homo sapiens, UniProt Q5ZPR3); assay: Flow chamber cell attachment assay under flow shear stress, MS1 cells expressing human B7-H3; type: cell-based
T2 construct: expressed in transfected cells; host or cells: MS1 (MILE SVEN 1) mouse vascular endothelial cells, ATCC CRL2279
T2 sequence (Q5ZPR3 29-534): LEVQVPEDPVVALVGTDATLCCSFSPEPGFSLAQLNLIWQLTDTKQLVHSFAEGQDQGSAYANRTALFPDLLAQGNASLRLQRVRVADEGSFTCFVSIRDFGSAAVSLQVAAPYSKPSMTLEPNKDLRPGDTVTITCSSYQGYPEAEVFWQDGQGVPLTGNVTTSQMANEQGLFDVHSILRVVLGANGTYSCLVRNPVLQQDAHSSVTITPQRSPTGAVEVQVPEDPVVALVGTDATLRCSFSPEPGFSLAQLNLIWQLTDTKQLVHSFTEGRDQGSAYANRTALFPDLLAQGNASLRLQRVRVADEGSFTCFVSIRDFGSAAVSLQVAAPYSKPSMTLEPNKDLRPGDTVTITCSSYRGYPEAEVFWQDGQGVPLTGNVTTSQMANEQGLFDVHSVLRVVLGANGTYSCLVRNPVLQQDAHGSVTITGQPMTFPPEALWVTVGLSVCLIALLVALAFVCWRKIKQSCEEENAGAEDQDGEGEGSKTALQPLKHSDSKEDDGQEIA
Procedure: Binding specificity of MB-B7-H3-affibody to the target B7-H3 was also assessed in cell culture experiments under flow shear stress conditions simulating flow in blood capillaries by using a parallel flow chamber experimental set-up (see FIG. 4). MS1 B7-H3+ cells between passages 2 and 4 were used in all experiments. Before flow chamber experiment, FACS analysis was performed in order to confirm B7-H3 expression of MS1 B7-H3+ cells. The geometric mean fluorescence intensity was determined using FlowJo software. MS1 B7-H3+ cells were grown on coated (Sigmacote; Sigma, St Louis, Mo) neutral-charged glass microscope slides (VWR, USA) for 24 hours and mounted on a parallel plate flow chamber (GlycoTech, Rockville, Md). A syringe infusion and withdrawal pump (Genie Plus; Kent Scientific, Torrington, Conn) was used to maintain the flow rate of 0.6 mL/min, corresponding to a wall shear stress rate of 100 sec-1, similar to that in tumor capillaries. The glass microscope slides were inverted and positioned in the parallel flow chamber apparatus in order to allow microbubbles to float and then bind to B7-H3-expressing cells. In brief, solutions were passed over cells in the following order; PBS for 2 minutes; 5×10^7 of either MB-B7-H3-affibody, MB-anti-B7-H3-antibody, or MB-Non-targeted in PBS for 4 minutes; and finally washing with PBS for 2 minutes. The adhered microbubble number on the MS1 B7-H3+ cells monolayer was quantified manually by counting attached microbubbles on MS1 B7-H3+ cells with a phase-contrast bright-field microscope (Axiovert 25; Carl Zeiss, Thornwood, NY; original magnification, ×100) to assess the number of attached microbubbles per cell. At least five random fields of view of these slides were immediately imaged. Note that microbubbles can be visualized as small, rounded particles (yellow arrow) and were considered to be attached to MS1 B7-H3+ cells when there was direct contact with the cells without free floating. The flow chamber cell attachment study confirmed high binding specificity of MB-B7-H3-affibody to MS1 B7-H3+ cells.
Flow chamber cell attachment assay. Binding specificity of MBABY-B7-H3 and MBAb-B7-H3 to the target B7-H3 was first assessed in cell culture experiments under flow shear stress conditions simulating flow in blood capillaries by using a flow chamber experimental set-up. Please see Supplementary Methods for more details.
ABYB7-H3 coated microbubbles (MBABY-B7-H3) attach to B7-H3 expressed on endothelial cells. To mimic the in vivo shear stress that would occur on bound MB by blood flow in the capillaries, an in vitro flow chamber cell attachment assay of MB using MS1hB7-H3 cells was performed (FIG. 11A). Biotinylated ABY was conjugated to streptavidin MB (MBABY-B7-H3). […]

B1: MBABY-B7-H3: contrast microbubbles functionalized with ABYB7-H3 (biotinylated ABY on streptavidin-coated, lipid-shelled perfluorocarbon MB) (conjugate)
chain: AEAKYAKEKIFAVGEIYWLPNLTHGQIMAFIAALNDDPSQSSELLSEAKKLNDSQAPKHHHHHH
B1 was tested, and the “binding to soluble B7-H3, in vitro flow analysis” value (soluble B7-H3) was “high-affinity binding”, the “average number of microbubbles attached per MS1 B7-H3+ cell” value ([1]; Example 1, 5×10^7 MB, flow rate 0.6 mL/min, wall shear stress rate 100 sec-1) was 8.52±1.42 MB/cell and the “MB attachment to MS1hB7-H3 cells after receptor blocking” value ([1]; Example 3, cells incubated with free ABYB7-H3 (5 μg/mL) prior to assay) was 10.9±2.9 MB/cell. The “number of MB attached to MS1hB7-H3 cells” value ([1]; Example 3, flow shear stress conditions) was 8.5±1.4 MB/cell and the “MB attachment to MS1hB7-H3 cells without blocking” value ([1]; Example 3, non-blocking group of the blocking study) was 26.3±4.4 MB/cell.
